In this assay the target is T1, HCoV-OC43 Nucleocapsid (N) protein (2X-StrepTag tagged) (HCoV-OC43, UniProt P33469 1-448).
T1 construct: also called rN; HCoV-OC43 rN; source: HEK293-FT, transfected, in crude lysate; not shown: 2X-StrepTag, C-terminal, kept
T1 sequence: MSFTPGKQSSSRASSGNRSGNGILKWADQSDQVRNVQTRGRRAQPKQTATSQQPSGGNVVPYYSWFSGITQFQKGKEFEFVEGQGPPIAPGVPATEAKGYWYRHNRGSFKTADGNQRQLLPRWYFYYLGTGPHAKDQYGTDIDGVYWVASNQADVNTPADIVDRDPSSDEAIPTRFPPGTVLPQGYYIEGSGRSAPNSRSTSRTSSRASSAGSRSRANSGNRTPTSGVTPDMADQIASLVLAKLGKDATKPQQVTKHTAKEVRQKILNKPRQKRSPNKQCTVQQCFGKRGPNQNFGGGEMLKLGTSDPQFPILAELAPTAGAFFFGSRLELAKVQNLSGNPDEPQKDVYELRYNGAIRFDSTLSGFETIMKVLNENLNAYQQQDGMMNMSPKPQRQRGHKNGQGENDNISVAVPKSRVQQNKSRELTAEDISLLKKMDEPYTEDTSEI
The assay is described as follows: BLI. The conditions noted are these: one partner purified.

The Kd is the equilibrium constant for the complex coming apart. Low readings indicate a tighter complex, high ones a looser complex. A word on the koff: it is the first-order rate constant of dissociation. For orientation: kon means the rate constant with which the complex forms. Low readings indicate slow association, high ones fast association.

B1: CCL20 (ligand)
chain: not shown
notes: recombinant human CCL20; source: bought: PeproTech
As to B1, the Kd is 1.8 µM, the koff came out at 0.017 s⁻¹ and the association rate constant (kon) was 18000 M⁻¹ s⁻¹.

The record behind these values is article doi:10.1101/2023.02.24.529952 (bioRxiv, 2023).
